Experimental data: the supplement of paper PMC11417369
± gives the standard deviation of the averaged measurements. The list shows a part of the results.

These sequences were tested on PfAP2-LT AP2 domain (GST-tagged) (assay: gcPBM binding intensity (ln(normalized median fluorescence intensity)); higher = stronger DNA binding).
Procedure, shortened: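 The highest Masliner-normalised natural-log median intensity across replicate spots of either probe orientation is reported as binding intensity. GST-tagged P. falciparum DNA-binding domains expressed in E. coli were applied for 1 h to an Agilent 4 × 180k array of primer-extended double-stranded 36-bp intergenic genomic probes plus negative controls, and bound protein was detected with Alexa488 anti-GST antibody and scanned at 488 nm.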

Sequence	gcPBM binding intensity (ln)
AAAAAATTATAAAAGTGTACATATATATATATATAT [XGTACX_site154]	9.42 ± 0.13
AGGTTACATAGATTTTGTACATATATATTATTTTTT [XGTACX_site3040]	8.78 ± 0.48
AATACAAATATATACACACATACATACATACATATA [CACACA_site3147]	9.43 ± 0.39
ATATATATATGTTACTGTACTAATTTATATGTTAAT [XGTACX_site3341]	8.96 ± 0.39
TAGTTTTCTTAAAGATGTACATTTTAAAAATAATCT [XGTACX_site255]	8.29 ± 0.42
TAGATATATAATTTGCGTACACAAATAATATATTTT [XGTACX_site6397]	8.61 ± 0.41
ATACACATATGTTAATGTACACATATATAATATTTA [XGTACX_site163]	8.76 ± 0.47
TTATGGTTTAAATAAAGTACAAATAAATAAATATAT [XGTACX_site5777]	8.66 ± 0.38
CACAAAAATAGACACACACACATATAGATTTATTAT [CACACA_site7676]	9.62 ± 0.36
TTTATTTATTACAATTTTTGAATCACCACACAGTCG [GTGCAC_negctrl_site413]	8.68 ± 0.58
ATCATGTTATATACATGTACATATATATATATATAT [XGTACX_site1329]	9.38 ± 0.57
TATTTATTTATGTGTTGTACAAATAAATAGAGGTAT [XGTACX_site6408]	8.85 ± 0.26
ATATATTAAAAACGATGTACCCTGAACTAAAAAAAA [XGTACX_site4986]	8.65 ± 0.47
TATATGAAAATGTTCATACACACATAAAAAAAAAAA [CACACA_site3237]	8.86 ± 0.57
CATATTTCTTTATTGGCACACATTTTTTCAATTATA [CACACA_site1618]	8.99 ± 0.52
TGTTATTACTTTATATCATCTTAAAATAAGCATATT [CACACA_negctrl_site1501]	8.43 ± 0.47
AAAAAAAAAAAAAACACACACAAATTTAATCTATAT [CACACA_site6894]	9.31 ± 0.51
TGAAATAAATAATGCACACTCTACAGATATACGTAT [CACACA_site5270]	9.01 ± 0.31
TTGAAAATACAAAATTGTACAAAGATTTAAATAAAA [XGTACX_site1182]	8.7 ± 0.49
CGCATACACAGACACACACACACATATAAATATGTA [CACACA_site6444]	9.98 ± 0.47
AATTTTTTATTAAACACACAAACATATATATATATA [CACACA_site1937]	9.29 ± 0.085
TATACCTATAGACACACACACATATAGATTTATATA [CACACA_site7124]	9.61 ± 0.4
TTCATTCAAATTAACGTGCACATTATTAGTAAAAAC	8.6 ± 0.42

Sequence	gcPBM binding intensity (ln)
TTATATAATTTAATAGTGCAATTATATTAATTTTTC	8.39 ± 0.49
GTTCATACTTAATATTGTACTTTTCATGTAGTGTAT [XGTACX_site6613]	9.01 ± 0.38
TAACATATTTTTAATACACACTCAAAAAAGTACTTA [CACACA_site5638]	8.49 ± 0.4
AAATAAATATTTATATGTACATATATTTTATAATAC [XGTACX_site7041]	8.72 ± 0.46
TACAAATATATATGCACACACATATACATACATATA [CACACA_site2182]	9.34 ± 0.32
TATTAGATATAATATATACACACCAACGAACGAAGA [CACACA_site1134]	9.14 ± 0.33
TTTATCCAATAATCTGGTACACAATAATCATTCATG [XGTACX_site6192]	8.63 ± 0.47
TTTTTTTACTTAATAGTTCAACATATATCTCAATGT [CACACA_negctrl_site620]	8.64 ± 0.53
TTTCTATTTATTTCAAGTACTAAAAATATATATAAC [XGTACX_site8203]	8.29 ± 0.49
ATTCATATATACTTCACACACATTTTATCATTCAAA [CACACA_site2468]	9.21 ± 0.45
TTTTTGTGCATTGATTGTACTTTCTAGGATTATTAA [XGTACX_site7070]	8.71 ± 0.38
TTTTTTTTTTTGATGGTGCAATATATTAAATAGAAA	8.19 ± 0.41
TATATATATATATAAAGTACATATAATATATATTTG [XGTACX_site5412]	8.93 ± 0.11
TTTTTTCATTATATATAGTATGCAAGTCAAATTAAT [GTGCAC_negctrl_site207]	8.45 ± 0.48
AAAAAAAAAAAAAACATACACACATTGAACTTTTAT [CACACA_site3251]	8.97 ± 0.4
CTATAAAAATATAATTGTACAAATTTTTATATCTTA [XGTACX_site7722]	8.35 ± 0.45
ACAAAATTTACAAAATGTACAAAATTTACAAAATAT [XGTACX_site3542]	8.8 ± 0.51
GAAAACGTCTTTAATAGTACACAGTTAAAAAATACA [XGTACX_site8976]	8.55 ± 0.4
GAAATTATGTAAAAAAGTACTAACATACATATATAT [XGTACX_site1794]	8.81 ± 0.42
TCATATAACACTTGATGTACAAGAATCCAAGTTGCA [XGTACX_site8758]	8.74 ± 0.24
ATATGTATAATATATATATATATATATATATATATA [CACACA_negctrl_site623]	9.52 ± 0.21
TTAAAATAGATAAATAGTACTCTTTCCATTATGTAA [XGTACX_site6299]	8.43 ± 0.51
TATATAATAAGATATGCATGCACATGTAAAATGAAT [TGCATGCA_site499]	9.26 ± 0.31

Sequence	gcPBM binding intensity (ln)
ATAATGTTTTATAATACACACATTAGATATATAAAT [CACACA_site7834]	8.87 ± 0.38
GTGATAAATATTATATGTACATATAATATTTATGTC [XGTACX_site8023]	8.87 ± 0.3
TTGAACCTGATAAATACACACAATATATATTTTTTT [CACACA_site2173]	8.78 ± 0.44
CCATTCTTACTTTATTGTACTTGAAAATTTTTTTTA [XGTACX_site6160]	8.77 ± 0.51
TCAAAAACGAGACATGCATGCAATTCATTTTGATTC [TGCATGCA_site212]	9.02 ± 0.24
TAAATACTTTTATGTACACACATATAGATATATATT [CACACA_site5416]	8.94 ± 0.36
TCAAACGGTTAAATATGTACATATATATATATATAT [XGTACX_site2339]	9.695 ± 0.0071
AAAAAAAAAAGACACACACACATATAAATATAAATA [CACACA_site6899]	9.81 ± 0.26
ACTCATAAAAATAGATGTACTTTAATAATTTGATTT [XGTACX_site8763]	8.48 ± 0.52
GTACATACATAAAACACACACATATAGATTTATATA [CACACA_site6945]	9.47 ± 0.33
AGTGTGTGTAATAAAGTGCATTAAAAATGACACGTA	9.65 ± 0.22
ACCCACTTTTGAGGTGTGCACAATAAATTGGACATT	9.01 ± 0.35
ATATATATTTAAACTACACACGCATATCTTAGAAAT [CACACA_site8348]	8.96 ± 0.35
TAAGAGATATTTTATTAAATGTTTTATGAATCATGT [TGCATGCA_negctrl_site264]	8.38 ± 0.38
AGGAAAAAAAAAATGACACACATATTTGAATTAAAA [CACACA_site1352]	8.82 ± 0.55
TATTAATAAAAGCATTGTACAGTAATAAATAAATAA [XGTACX_site2924]	8.69 ± 0.42
TATATATATAAACACACACACACCAAAGCGTAGCGC [CACACA_site7903]	9.8 ± 0.17
AGCCATTAATTCTCTACACACCTTTATGTTATTTAG [CACACA_site3635]	9.15 ± 0.4
ATATTAAAATGAAAATATAAAAAAAAAAAAAAAAAA [CACACA_negctrl_site1559]	8.21 ± 0.48
CAATCAAATAGACACACACACACCTAAACATAAAAG [CACACA_site7322]	10.2 ± 0.4
AAGGAAATATAATATACACACATAAGTGTACTTCTA [CACACA_site6079]	9.04 ± 0.3
TTGTATTCATAACAACGTACATATTTTGTAACTAAA [XGTACX_site4029]	8.48 ± 0.34
TTTCAAACAAAAAGACGTACACTGAAGTTATCCGTC [XGTACX_site8824]	8.62 ± 0.52

Sequence	gcPBM binding intensity (ln)
AAATTCATATGAATTTGTACGGACATAAATATCTTC [XGTACX_site1838]	8.85 ± 0.35
TGTATGTTTATTTGATGTACGGTCATACATATAAAT [XGTACX_site5176]	8.82 ± 0.42
CTATTTTTTGTATAAACATGCATATAGTAGATATGG [TGCATGCA_site670]	8.63 ± 0.41
TTTAATATTTTTTTTTGTACTTATTTGTAGAAATAT [XGTACX_site3046]	8.49 ± 0.54
AGGCTCATTTTTTTTAGTACATCAAAAAAAAAAAAA [TGCATGCA_negctrl_site591]	8.18 ± 0.39
CGCATGTATTTTGTGTGTACTAATTATAATCAACTT [XGTACX_site4709]	9.03 ± 0.29
TTTTACATATACATGTGTACATAACAAAGAATGTTT [XGTACX_site2406]	8.78 ± 0.42
TAATATTGTATTTATGTACACACATTTTTGGAATAT [CACACA_site8371]	9.06 ± 0.42
TTTTTTAATAAATGGTGTACATATTTTTTTTATACT [XGTACX_site8584]	8.62 ± 0.47
AGTGTATTAATTCTCACACACTAAGAAAAAAAAAAA [CACACA_site6007]	8.89 ± 0.43
ATTCATAATATTATAACACACGCTTATTACATAAAG [CACACA_site980]	8.79 ± 0.37
ATATATATATATATGTGTACATATGTATATATATCT [XGTACX_site2930]	9.37 ± 0.32
AGATGGAGAAAGTTATGTACACATATATAAATATGT [XGTACX_site6150]	8.86 ± 0.44
CCCATGTAATGAACATGTACATAATAATTTATAAAT [XGTACX_site8687]	8.85 ± 0.32
TATATACATATGTGATGTACATTTTTTGTAATATAA [XGTACX_site6985]	8.61 ± 0.38
TAACACATATATTGTTGTACATTCAAACTGAAAAAT [XGTACX_site5565]	8.74 ± 0.37
TTTTTTTTATTAAAAAGTACTAAACAAATTATATAT [XGTACX_site121]	8.1 ± 0.52
CCATAACTCATATGCACACATAAATATTACATATAT [CACACA_site3821]	9.22 ± 0.49
TTTTAAAAAGAAAAAAATAACATACATATATATATA [CACACA_negctrl_site240]	8.66 ± 0.29
ATTTTTTTTTTTTTTTTTTTTGAGAAGAACTTTTTC [CACACA_negctrl_site1019]	8.3 ± 0.58
